Out of some 280,000 compounds screened, about 100 (0.036%) were called active. This list was built around the results that the source calls inconclusive (neither active nor inactive); the mix of calls is not that of the screen. Calls follow the shape of the dose curve; as a rule, active = well fitted inhibition curve with a large enough effect in the signal ratio, with a control signal flat (not every such curve was filed as active); inconclusive = small, poorly fitted or top-dose-only effect, or effect the other way, or a change in a side signal; inactive = no such curve, though single readings can be large or run the other way; the % refers to the signal ratio. Where the call is inconclusive, the potency comes from a doubtful curve fit. “Side channel” marks fits to a control or component signal instead of the main read-out.
These compounds were tested against Muscleblind-like protein 1 (Homo sapiens) (UniProt Q9NR56) (assay: qHTS Assay for Inhibitors of MBNL1-poly(CUG) RNA binding). Conditions: TR-FRET MBNL1-His/biotin-(CUG)12 binding, 665/545 ratio; activity change, negative = inhibition: at 57.5 µM (top of the series).
Method in brief: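 TR-FRET between His-tagged MBNL1 and biotin-(CUG)12 RNA, detected with Tb anti-His antibody (0.055 ng/ul) and streptavidin-XL665 (5 nM), 60 min at room temperature. Compounds titrated 92 nM to 58 uM; 665/545 nm ratio normalized to buffer and complex controls.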
% is scaled to controls: 0 for no effect and ±100 for the full control effect; potency is read from the fitted curve at half-maximal effect; tags tell the direction and shape of the fitted curve or compound fluorescence and quenching.

Sequence of UniProt Q9NR56 (Q9NR56 whole entry, looked up): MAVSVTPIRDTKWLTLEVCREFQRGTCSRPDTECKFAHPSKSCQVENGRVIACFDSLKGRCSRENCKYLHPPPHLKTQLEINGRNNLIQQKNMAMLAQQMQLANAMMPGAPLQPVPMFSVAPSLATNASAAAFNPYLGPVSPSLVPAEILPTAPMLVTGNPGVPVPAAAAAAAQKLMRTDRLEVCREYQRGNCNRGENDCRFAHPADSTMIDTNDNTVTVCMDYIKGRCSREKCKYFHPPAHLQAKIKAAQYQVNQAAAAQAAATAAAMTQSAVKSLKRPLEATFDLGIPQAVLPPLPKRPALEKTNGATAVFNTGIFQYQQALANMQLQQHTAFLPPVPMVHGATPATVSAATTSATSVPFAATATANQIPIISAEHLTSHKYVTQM

SMILES | Potency | activity change, negative = inhibition
CC(C)CC(=O)NCCCN1CCN(CCCNC(=O)CC(C)C)CC1 | inconclusive: 50.1 µM [inhibitor, partial curve] | –
C/C(=N\NC(=O)COc1ccccc1[N+](=O)[O-])c1cccc(NC(=O)c2ccncc2)c1 | inconclusive: 14.1 µM [quencher, side channel, partial curve] | –
COc1ccc(C(=O)C2CCCN(C(=O)CCc3scnc3C)C2)c(C)c1 (centres undefined) | inconclusive: 14.1 µM [quencher, side channel, partial curve] | –
Cc1cc(C)c(C#N)c(SCc2nnc(-c3ccccc3[N+](=O)[O-])o2)n1 | inconclusive: 10 µM [quencher, side channel, partial curve] | –
Cc1cccc(/C=C2\Sc3ccc(C(=O)N4CCC(C(N)=O)CC4)cc3N(C)C2=O)c1 | inconclusive: 14.1 µM [quencher, side channel, partial curve] | –
O=C(CCNC(=O)c1ccc([N+](=O)[O-])cc1)NNC(=O)c1ccncc1 | inconclusive: 14.1 µM [quencher, partial curve] | –
Cc1cc2nc(-c3ccc(SCc4ccccc4C#N)nc3)[nH]c2cc1C | inconclusive: 0.562 µM [quencher, side channel, single point] | –
O=C1C(NS(=O)(=O)c2ccc(Cl)cc2)=C(N2CCCCC2)C(=O)c2ccccc21 | inconclusive: 12.6 µM [quencher, side channel, partial curve] | –
Cc1nc(NC(=O)c2cnccn2)ccc1Br | inactive | –
Nc1cc(C(=O)c2ccccc2)ccc1[N+](=O)[O-] | inconclusive: 20 µM [quencher, side channel, partial curve] | –
Cn1cccc1/C=N/NC(=O)C(O)c1ccccc1 (centres undefined) | inconclusive: 22.4 µM [quencher, side channel, partial curve] | –
Cc1sc2nc(-c3cccs3)nc(N3CCCN(C)CC3)c2c1C | inconclusive: 12.6 µM [quencher, side channel, partial curve] | –
O=Nc1[nH]c(=O)c(/C=C(\O)c2ccccc2)nc1NO | inconclusive: 12.6 µM [quencher, side channel, partial curve] | –
Cc1c(C(=O)Nc2ccc(-c3nnc4n3CCCCC4)cc2)oc2ccc(Br)cc12 | inconclusive: 35.5 µM [fluorescent, side channel, partial curve] | –
c1ccc(CCNC2=NCCS2)cc1 | inconclusive: 0.141 µM [quencher, full curve, poor fit] | –
O=C(c1cccc(F)c1)N1CCN(c2cc(N3CCCCC3)c(F)cc2[N+](=O)[O-])CC1 | inconclusive: 5.62 µM [quencher, side channel, full curve] | –
CCn1nc(NS(=O)(=O)c2ccc(NC(C)=O)cc2)c2cc3ccccc3nc21 | inconclusive: 25.1 µM [quencher, side channel, partial curve] | –
CC12CN3CC(C)(CN(C1)C3c1ccc([N+](=O)[O-])o1)C2=O (centres undefined) | inconclusive: 31.6 µM [quencher, side channel, partial curve] | –
CC(CCc1ccccc1)NC(=O)c1ccc(NC(=O)c2ccc(Cl)cc2Cl)cc1 (centres undefined) | inconclusive: 11.2 µM [fluorescent, side channel, partial curve] | –
O=C(O)C(Cc1ccccc1)N1C(=O)/C(=C/c2cccs2)SC1=S (centres undefined) | inactive | –

SMILES | Potency | activity change, negative = inhibition
O=C(Nc1ccc(CN2CCOCC2)cc1)c1ccc(-c2cccc([N+](=O)[O-])c2)o1 | inconclusive: 10 µM [quencher, side channel, partial curve] | –
C/C(=N\NC(=O)c1ccc([N+](=O)[O-])cc1)c1cc2ccccc2oc1=O | inconclusive: 22.4 µM [quencher, side channel, partial curve] | –
NS(=O)(=O)c1ccc(CCNc2nc(C(F)(F)F)nc3ccccc23)cc1 | inconclusive: 25.1 µM [fluorescent, side channel, single point] | –
CCOc1ccc(Nc2ccc3nonc3c2[N+](=O)[O-])cc1 | inconclusive: 1 µM [quencher, side channel, full curve] | –
COc1ccc(N/C=C2\CCc3ccccc3C2=O)cc1 | inconclusive: 25.1 µM [quencher, side channel, partial curve] | –
O=C(N/N=C/c1ccc(N2CCOCC2)cc1)c1cccs1 | inconclusive: 28.2 µM [quencher, side channel, single point] | –
COC(=O)c1cc(NC(=O)c2c(Cl)nc3sccn23)cc(C(=O)OC)c1 | inactive | –
CN(CCC#N)C(=O)COC(=O)/C=C/c1cccs1 | inconclusive: 20 µM [quencher, side channel, single point] | –
CCCn1c(NC(=O)C2CCN(C(=O)c3ccc(F)cc3)CC2)nc2ccccc21 | inactive | –
CCN(CC)c1ccc(S(=O)(=O)N2CCOCC2)cc1NC(=O)c1cc(=O)c2ccccc2o1 | inactive | –
O=C1c2oc3ccccc3c(=O)c2C(c2cccs2)N1CCCN1CCOCC1 (centres undefined) | inconclusive: 35.5 µM [quencher, side channel, single point] | –
COc1ccccc1C(=O)NCCNc1ccc([N+](=O)[O-])cc1Cl | inconclusive: 15.8 µM [quencher, side channel, partial curve] | –
Cc1ccccc1NC(=O)CSc1nnc(-c2ccco2)c(-c2ccco2)n1 | inconclusive: 28.2 µM [quencher, side channel, partial curve] | –
c1ccc(-c2noc(-c3ccc4ccccc4c3)n2)nc1 | inconclusive: 10 µM [quencher, partial curve] | –
O=C(O)CSc1cccc2cccnc12 | inconclusive: 44.7 µM [quencher, side channel, single point] | –
CC(=O)C1=C(C)OC2(O)c3ccccc3C(=O)C12O (centres undefined) | inconclusive: 11.2 µM [quencher, side channel, partial curve] | –
O=C(COc1ccc2c(-c3ccccc3)cc(=O)oc2c1)NCCCN1CCOCC1 | inconclusive: 6.31 µM [quencher, side channel, partial curve] | –
O=C(COc1ccccc1[N+](=O)[O-])Nc1ccc(N2CCN(C(=O)c3cccs3)CC2)cc1 | inconclusive: 25.1 µM [quencher, single point] | –
COc1ccccc1CNc1ncnc2cc(Cl)ccc12 | inconclusive: 17.8 µM [fluorescent, side channel, partial curve] | –
Cc1cccc(S(=O)(=O)Nc2ccc(-c3nc4ccc(C)cc4s3)cc2)c1 | inconclusive: 0.126 µM [quencher, side channel, full curve, poor fit] | –

SMILES | Potency | activity change, negative = inhibition
CCOc1cc(C(c2c(C)[nH][nH]c2=O)c2c(C)[nH][nH]c2=O)cc([N+](=O)[O-])c1O | inconclusive: 17.8 µM [quencher, side channel, partial curve] | –
CCCN1CCC(NC(=O)Nc2ccc([N+](=O)[O-])cc2)CC1 | inconclusive: 14.1 µM [quencher, side channel, partial curve] | –
COCc1nnc(SCC(=O)NC(C)c2ccccc2)n1-c1ccccc1 (centres undefined) | inconclusive: 15.8 µM [quencher, side channel, partial curve] | –
C(=N\Nc1ccccn1)/c1ccc(N2CCOCC2)cc1 | inconclusive: 15.8 µM [quencher, side channel, partial curve] | –
COCCNC(=O)c1ccc2c(c1)C(=O)c1ccccc1-2 | inconclusive: 14.1 µM [quencher, side channel, partial curve] | –
CC(C)c1ccc(/C=C2\CC/C(=C\C=N\N(C)C)C2=O)cc1 | inactive | –
CN(C)c1ccc(/C=N/n2c(-c3ccccc3Br)n[nH]c2=S)cc1 | inactive | –
O=C(O)c1ccc(/C=N/NC(=O)c2ccc(NS(=O)(=O)c3cccs3)cc2)cc1 | inconclusive: 39.8 µM [quencher, side channel, single point] | –
Cc1ccc(C(=O)CSc2nnc3c4ccccc4nc(Cc4ccccc4)n23)cc1 | – | inconclusive: -1.06% [phenotype inactive]
O=[N+]([O-])c1ccc(/C=N/NC(=S)Nc2ccccc2)o1 | inconclusive: 15.8 µM [quencher, side channel, partial curve] | –
COC(=O)c1ccc(CSc2nnc(CS(=O)Cc3ccc(Br)cc3)n2-c2ccccc2)cc1 (centres undefined) | inactive | –
COc1ccc(C)cc1NS(=O)(=O)c1ccc(NS(=O)(=O)c2ccc(NC(C)=O)cc2)cc1 | inconclusive: 100 µM [inhibitor, partial curve] | –
NC(=O)COc1ccc(C(=O)/C=C2/C(=O)Nc3ccccc32)cc1 | inactive | –
N#Cc1nc(-c2ccco2)oc1NCc1cccnc1 | inconclusive: 22.4 µM [quencher, side channel, single point] | –
O=C(Nc1ccc(F)c([N+](=O)[O-])c1)C(=O)c1c(O)[nH]c2ccccc12 | inconclusive: 35.5 µM [quencher, single point] | –
CCc1nn(CC(=O)NCCCN2CCOCC2)c(=O)c2cc3cc(F)ccc3n12 | inconclusive: 31.6 µM [quencher, side channel, single point] | –
COc1ccccc1NC(=O)C1=C(C)NC2=C(C(=O)CC(c3ccc(OC)c(OC)c3)C2)C1c1coc2ccccc2c1=O (centres undefined) | inactive | –
CCOc1ccc(C(=O)Nc2cccc3cccnc23)cc1 | inactive | –
Cc1cc(-c2cccs2)c(C#N)c(=S)[nH]1 | inconclusive: 39.8 µM [quencher, single point] | –

From PubChem BioAssay AID2675 (National Center for Advancing Translational Sciences (NCATS), 2010)
